# Experimental data published in PubChem BioAssay AID1466 (National Center for Advancing Translational Sciences (NCATS), 2008).
# In all, about 200,000 compounds went through this assay and about 10 (0.005%) were called active. Inconclusive means that the source gave no clear call. Such entries were picked first, then a sample of the others. Calls come from the whole dose curve; as a rule, active = well fitted inhibition curve with a large enough effect; inconclusive = small, poorly fitted or top-dose-only effect, or effect the other way, or another doubt; inactive = no such curve, though single readings can be large or run the other way. Potencies of inconclusive entries are left out as doubtful fits.
# Target: Lysosomal alpha-glucosidase (Homo sapiens) (UniProt P10253)
# Test: qHTS Assay for Inhibitors of Human alpha-Glucosidase as a Potential Chaperone Treatment of Pompe Disease;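 for activity change, negative = inhibition: plate controls were uninhibited enzyme wells for no effect and no-enzyme background for full effect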
# Details: purified human GAA, 4-MU-alpha-glucoside fluorescence; activity change, negative = inhibition: at 76.9 µM (top of the series) unless noted
# Summary of the method: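 Fluorescence at Ex 365/Em 440 nm from 4-methylumbelliferone reported enzyme activity after 20 min at room temperature. Reactions used 4 nM enzyme and 400 uM substrate at pH 5.0; curves fitted with the Hill equation.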
# Potency is the fitted concentration of half-maximal effect; tags give direction and shape of the fitted curve.
SMILES,Potency,"activity change, negative = inhibition"
c1ccc2c(c1)[nH]c1c(N3CCSCC3)ncnc12,"inconclusive [inhibitor, partial curve]",–
NC(=O)C(=O)NCCCN1CCOCC1,"inconclusive [activator, partial curve, poor fit]",–
O=C(NCc1ccco1)c1ccccc1-c1ccc(C(F)(F)F)cc1,"inconclusive [inhibitor, single point]",–
CC1CCC2C(C1)Nc1c(C(=O)O)cccc1C2(C)C (stereo not drawn),"inconclusive [activator, single point]",–
CCOC(=O)CCSc1nc(C(C)(C)C)cc(C(F)(F)F)c1C#N,"inconclusive [inhibitor, partial curve]",–
CCCCN(CC)Cc1ccc(CNC(=O)Nc2ccc(Cl)cc2)o1,"inconclusive [inhibitor, full curve]",–
COc1ccc(/C=C/C(=O)c2ccccn2)cc1,inactive,–
COc1ccc(S(=O)(=O)NCc2ccccn2)cc1Cl,"inconclusive [inhibitor, partial curve, poor fit]",–
COC(=O)c1c(C)oc(C)c1S(=O)(=O)NC(C)(C)C,"inconclusive [inhibitor, single point]",–
Oc1ccc(Br)cc1/C=N/Nc1ncc(-c2ccccc2)cn1,inactive,–
COc1ccc(OC)c(/C=C/C(=O)N2CCCc3ccccc32)c1,–,inconclusive: -18.3% [inhibitor]
COc1ccc2nc(NC(=O)c3ccc(-n4nc(C)cc4C)cc3)sc2c1,"inconclusive [activator, single point]",–
Cc1nc(Nc2ccc(S(N)(=O)=O)cc2)sc1C(=O)Nc1ccccc1,–,inconclusive: -17.8% [inhibitor]
COc1ccc(N(C)C(=O)Nc2ccc3nsnc3c2)cc1,–,inconclusive: 10.7% [activator]
C/C(=N\NC(=O)c1ccc(NS(=O)(=O)c2cccs2)cc1)c1ccc(O)cc1O,"inconclusive [inhibitor, partial curve]",–
CC(=O)Nc1cccc(Oc2cc(C#N)c(C#N)cc2N2CCCCCC2)c1,–,inconclusive: -16% [inhibitor]
CCOc1ccc(OCC)c(NS(=O)(=O)c2cccc3nsnc23)c1,"inconclusive [inhibitor, partial curve]",–
O=C(Nc1ccccc1NS(=O)(=O)c1ccc(F)cc1)C1CCCC1,"inconclusive [inhibitor, single point]",–
S=C(NC1CCCCC1)N1CCN(C/C=C/c2ccccc2)CC1,"inconclusive [inhibitor, single point]",–
c1ccc(CN2C3=NCCN3c3ccccc32)cc1,"inconclusive [inhibitor, single point]",–
Cc1ccc(S(=O)(=O)N2CCN(Cc3ccccc3C(F)(F)F)CC2)cc1,"inconclusive [inhibitor, partial curve]",–
CN1CC(=O)N(CC(=O)N2CCC(Cc3ccccc3)CC2)C1=O,–,inconclusive: -21.4% [inhibitor]
COc1ccc(-c2c(C)nn3c(N4CCN(Cc5ccccc5)CC4)cc(C)nc23)cc1OC,"inconclusive [inhibitor, partial curve]",–

SMILES,Potency,"activity change, negative = inhibition"
Cc1ccc(-c2csc(NC(=O)CSC3=NCCS3)n2)cc1,"inconclusive [inhibitor, single point]",–
CNc1nc(N)c(C(=O)C23CC4CC(CC(C4)C2)C3)s1,"inconclusive [activator, full curve, poor fit]",–
NC(=S)N/N=C1/CCSc2ccc3ccccc3c21,inactive,–
COC(=O)Cn1c(=NC(=O)c2cccc(OC)c2)sc2cc(OC)ccc21,"inconclusive [activator, single point]",–
CN(C)c1nc(SCc2ccccc2Cl)nc2c1CCCC2,"inconclusive [inhibitor, single point]",–
COc1cc(OC)c(OC)cc1CNC1CCCCCC1,"inconclusive [inhibitor, single point]",–
CCN(CC)c1ccc(C2CC(=O)Nc3cc(OC)c(OC)cc32)cc1 (stereo not drawn),"inconclusive [inhibitor, single point]",–
FC(F)(F)c1cccc(-n2cccc2/C=N/n2cnnc2)c1,inactive,–
CNC(=O)c1sc(-c2ccccn2)nc1C,"inconclusive [inhibitor, single point]",–
COc1cccc(-c2nc(N3CCN(Cc4ccccc4)CC3)c3ccccc3n2)c1O,"inconclusive [activator, partial curve]",–
Cc1ccc2nc(NCCC(=O)O)nc(-c3ccccc3)c2c1,"inconclusive [activator, partial curve, poor fit]",–
CCOc1ccc(CNc2cccc(SC)c2)cc1,inactive,–
Cc1ccc(-c2nn(-c3ccccc3)cc2/C=N/NC(=O)c2ccc3c(c2)OCO3)cc1,"inconclusive [inhibitor, partial curve]",–
CCn1c(CSc2n[nH]c(N)n2)nc2cc(C(=O)O)ccc21,inactive,–
COc1ccc(NC(=O)NCCC2=CCCCC2)cc1,"inconclusive [inhibitor, single point]",–
CC(C)[C@H](Nc1nc(-c2ccccc2)nc2c1oc1ccccc12)C(=O)O,"inconclusive [inhibitor, partial curve, poor fit]",–
Cc1ccc(OCC(=O)NNc2c3ccccc3nc3ccccc23)cc1,"inconclusive [inhibitor, single point]",–
COCCNC(=O)CN(C(=O)Cn1nnc2ccccc21)c1cccc(C)c1C,–,inconclusive: 15.7% [activator]
COc1ccc(/C=N/Nc2nonc2N)c(OC)c1,inactive,–
CN(C)c1ccc2c3c(cccc13)C(=O)N(c1ccccc1)C2=O,–,inconclusive: 15.5% [activator]
COc1ccc(NC(=O)C(c2ccc(OC)cc2)N(C)C(=O)Cc2cccs2)cc1 (stereo not drawn),"inconclusive [inhibitor, single point]",–
C=CCSc1nc2ccsc2c(=O)n1-c1ccccc1,"inconclusive [inhibitor, single point]",–
COc1ccc(C(=O)C2CCCN(S(=O)(=O)C(C)C)C2)c(C)c1 (stereo not drawn),–,inconclusive: 20.1% [activator]

SMILES,Potency,"activity change, negative = inhibition"
Cc1ccccc1NC(=O)c1cc(N)ccc1N1CCCCC1,"inconclusive [inhibitor, single point]",–
CCCCCCSc1cc(C)nc2ncnn12,"inconclusive [inhibitor, single point]",–
CCNc1ccc(S(=O)(=O)N(C)C)cc1NCC(=O)Nc1ccccc1F,"inconclusive [inhibitor, single point]",–
O=C(CCc1nnc(CCCCc2ccccc2)o1)NCc1cccc(F)c1,–,inconclusive: 3.47% [activator]
O=C(NNC(=O)c1cccs1)c1ccco1,"inconclusive [inhibitor, full curve, poor fit]",–
CCN(CC)c1ccc(NC(=O)c2[nH]c(C)c(C(C)=O)c2C)c(C)c1,"inconclusive [inhibitor, single point]",–
COc1cc(-c2cn[nH]c2N)cc(OC)c1OC,"inconclusive [inhibitor, partial curve, poor fit]",–
CC(NC(=O)COc1ccc([N+](=O)[O-])cc1)c1ccccc1 (stereo not drawn),–,inconclusive: 16.4% [activator]
CCOC(=O)COc1ccc2cc(C(=O)OCC)c(=O)oc2c1,"inconclusive [activator, partial curve]",–
COc1ccccc1N1C(=O)c2cccc3c(C(=O)O)ccc(c23)C1=O,"inconclusive [inhibitor, single point]",–
C=CC(=O)N=c1sc2ccccc2n1-c1ccccc1,"inconclusive [inhibitor, single point]",–
O=C(N1CCCC1)C(F)(F)Oc1ccc(F)cc1,"inconclusive [activator, partial curve, poor fit]",–
CCCn1c(CCC(=O)O)ccc1-c1ccc(OC)cc1,"inconclusive [activator, partial curve]",–
CC1Cc2ccccc2N1C(=O)CSc1nnnn1Cc1ccccc1 (stereo not drawn),"inconclusive [inhibitor, partial curve]",–
CCc1ccc(N2CCN(C(=O)c3ccc(OC)c(OC)c3)CC2)cc1,"inconclusive [inhibitor, full curve, poor fit]",–
COCCn1c(=O)[nH]c2cc(C(=O)OC)ccc2c1=O,"inconclusive [activator, single point]",–
Cn1c(Cl)c(C(=O)Nc2ccc(Cl)cc2)c2ccccc21,"inconclusive [inhibitor, single point]",–
CC1CN(c2ccc([N+](=O)[O-])cc2C#N)CC(C)O1 (stereo not drawn),"inconclusive [inhibitor, single point]",–
COc1ccc(CC2(CO)CCN(CC3=CC[C@H]4C[C@@H]3C4(C)C)CC2)cc1,"inconclusive [inhibitor, single point]",–
Cc1ccc(NC(=O)CN(C)S(=O)(=O)c2cnc[nH]2)cc1C,"inconclusive [inhibitor, single point]",–
COc1ccccc1N1CCN(C(c2ccccc2)c2nnnn2CCc2ccccc2)CC1 (stereo not drawn),–,inconclusive: -15% [inhibitor]
CCOC(=O)C1=CN(CC2CCCO2)C=C(C(=O)OCC)C1c1ccccc1C(F)(F)F (stereo not drawn),"inconclusive [activator, partial curve]",–
